# Test results reported in article PMC7819943, “Rice protein-binding microarrays: a tool to detect cis-acting elements near promoter regions in rice”.
# Some of the results follow.
# Target: T1, OsWOX13 (Oryza sativa, UniProt Q5QMM3 1-267)
# T1 sequence: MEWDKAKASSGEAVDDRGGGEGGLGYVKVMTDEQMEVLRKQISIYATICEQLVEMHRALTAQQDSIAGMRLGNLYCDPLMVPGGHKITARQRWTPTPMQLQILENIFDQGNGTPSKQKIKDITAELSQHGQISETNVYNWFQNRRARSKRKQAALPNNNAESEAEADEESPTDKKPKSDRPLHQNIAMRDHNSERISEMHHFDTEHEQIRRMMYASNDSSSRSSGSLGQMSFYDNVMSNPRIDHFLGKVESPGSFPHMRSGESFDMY
# Test: protein-binding microarray (RPBM); PBS, 2% BSA, 51.3 ng/ul salmon testes DNA, 50 uM zinc acetate, 200 nM TF, 25 C, 1 h; high values mean tight binding
# Details: protein: recombinant; tags: N-terminal polyhistidine and DsRed monomer fusion (pET32a); label: CyDye5-dUTP incorporated in the synthesized complementary strand; 3' TTTTT single-stranded linker to array surface; dsDNA, one strand shown
# Method in brief: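 Transcription factors, each fused N-terminally to a polyhistidine tag and DsRed, were expressed in E. coli BL21-CodonPlus and purified on Ni–NTA. A custom Agilent array was made double-stranded by primer extension with Cy5-dUTP and blocked with 2% BSA. It was incubated with 200 nM protein in PBS, 2% BSA, salmon testes DNA and 50 µM zinc acetate at 25 °C for 1 h, then washed. The binding signal is per-feature fluorescence intensity (arbitrary units) read on an Axon 4000B scanner.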
row,Sequence,binding signal
1,GTTCAGTTCATACACATGCATAATTAGCTTTAATTATTTACGGAGTCACCTAGTGCAG,3570 fluorescence intensity (a.u.)
2,CTGACGATAGTTTACAGGTTAATTTACACTACATATATATCGGAGTCACCTAGTGCAG,4370 fluorescence intensity (a.u.)
3,CATGACAAACTCTATTAATTTTATGGCTGCATATGAATATCGGAGTCACCTAGTGCAG,9260 fluorescence intensity (a.u.)
4,CCACCTCACCACCAATCAACCCAATGCAAATGCCATTTCTCGGAGTCACCTAGTGCAG,4330 fluorescence intensity (a.u.)
5,CGTTCATCATTACCCTTGACACTCTAGAAATTGATATTATCGGAGTCACCTAGTGCAG,3490 fluorescence intensity (a.u.)
6,ATAAAATAAAATTAACAATCACAACCATAGTGCTTATCAACGGAGTCACCTAGTGCAG,8480 fluorescence intensity (a.u.)
7,TAAATTGTTAAAATTTAGCACACGCTGACTAATCCTCGCTCGGAGTCACCTAGTGCAG,14500 fluorescence intensity (a.u.)
8,TGTTACAGCATCTAATTAACAGAAACTCGTGTGTCGATATCGGAGTCACCTAGTGCAG,5150 fluorescence intensity (a.u.)
9,CCTGATTAATTGTTAATTTTGCTGATGCAGCTGTTGCTTGCGGAGTCACCTAGTGCAG,65000 fluorescence intensity (a.u.)
10,AATTTGATTTGGCCTGTATATTACTATGTGCAGGGTTCCCCGGAGTCACCTAGTGCAG,20100 fluorescence intensity (a.u.)
11,ACTTTTCCGTCACATCGTTTTAATTTCTTTAAACTTTTAACGGAGTCACCTAGTGCAG,3400 fluorescence intensity (a.u.)
12,TCTCTCCAATTAAGCCGAAAGTGTCATCCAGCAAATTACCCGGAGTCACCTAGTGCAG,5160 fluorescence intensity (a.u.)
13,CAATTATCATTAGATTAGATAGGCTGGAAAAGTTGATCTTCGGAGTCACCTAGTGCAG,10700 fluorescence intensity (a.u.)
14,TCACCAAAATAAATTTAATAGAAATTTTGGCATGACCTCCCGGAGTCACCTAGTGCAG,12800 fluorescence intensity (a.u.)
15,TCCTTTTAACTGATTTTCGGTATGTTTAGCATAAACTCGTCGGAGTCACCTAGTGCAG,12800 fluorescence intensity (a.u.)
16,ACTAGACAATTTGAATTTACAACTATATATACTCCCAATCCGGAGTCACCTAGTGCAG,3250 fluorescence intensity (a.u.)
17,TGCCCGTGATAGATGCGGCCGACTGGCCGAGCAGCCAGCTCGGAGTCACCTAGTGCAG,4750 fluorescence intensity (a.u.)
18,ATAGCCAGTATAATAATCAATTTATATAATAGTTACTTACCGGAGTCACCTAGTGCAG,3610 fluorescence intensity (a.u.)
19,ATGATTAGCAGCTGATTACTGTAGCATTACTGTAGCAAATCGGAGTCACCTAGTGCAG,45200 fluorescence intensity (a.u.)
20,GCCATTGGATTGGATGATTCTGGACCGTCGGATTTGATGACGGAGTCACCTAGTGCAG,4780 fluorescence intensity (a.u.)
21,CTGAAATTGAAGTGTGTGGTTGATGCTTCCTACACATGAGCGGAGTCACCTAGTGCAG,20800 fluorescence intensity (a.u.)

row,Sequence,binding signal
1,TGATGAAGATGATGAGCATGTGATTGAGCTGTCTGATTGCCGGAGTCACCTAGTGCAG,33800 fluorescence intensity (a.u.)
2,AATGGATTGGTAGAGTATTTCACCCTAAGGAACATATAGCCGGAGTCACCTAGTGCAG,7960 fluorescence intensity (a.u.)
3,AAAACGATCAACGGTTTAGATTAATTTATACTCCGAGTGGCGGAGTCACCTAGTGCAG,7100 fluorescence intensity (a.u.)
4,CGTTATGGTATGATTAATTAATTATCACCCGGAGGAACTTCGGAGTCACCTAGTGCAG,32300 fluorescence intensity (a.u.)
5,TAGTAATTGCATTAGTTTGTCATGGGCACATCATGCCACTCGGAGTCACCTAGTGCAG,13000 fluorescence intensity (a.u.)
6,TTATTACAATTTAATTATATTTTAATTATTCTAAAAGCTTCGGAGTCACCTAGTGCAG,20200 fluorescence intensity (a.u.)
7,ACTGACGGATATATGATCAGTTCACCCCTTCCGGCCTTCGCGGAGTCACCTAGTGCAG,7910 fluorescence intensity (a.u.)
8,ATTAATTTGTGTGCGAAACTTACATGTGGGTCCCATGGGTCGGAGTCACCTAGTGCAG,25300 fluorescence intensity (a.u.)
9,GCTTTGGGTCTTGGTTGATTGATTTATTTATAGGCGCGGTCGGAGTCACCTAGTGCAG,22000 fluorescence intensity (a.u.)
10,TTAATTGCATAGATTGCGACTAATTTACAAGATGAATCTTCGGAGTCACCTAGTGCAG,31400 fluorescence intensity (a.u.)
11,CTGTTCACACGGATTGATCATTGATGGATCCATGCTGATGCGGAGTCACCTAGTGCAG,9220 fluorescence intensity (a.u.)
12,CTACATAATATTATTAATTTGTGTGCGAAACTGCATGTGGCGGAGTCACCTAGTGCAG,13100 fluorescence intensity (a.u.)
13,ATTACATATAAATTATATTGTAATTACATATAAGTTACAACGGAGTCACCTAGTGCAG,11700 fluorescence intensity (a.u.)
14,GGAATTGCGTGATTGAATTCAAAATTGGGATGATAAATATCGGAGTCACCTAGTGCAG,16200 fluorescence intensity (a.u.)
15,GTAATTGAAGTCAGAGTCAAGTTTGAAGTCTTTGAATATGCGGAGTCACCTAGTGCAG,18300 fluorescence intensity (a.u.)
16,TATTGCTAATTAGCCCGTTAAAACAGCTCGATCAGGGCCCCGGAGTCACCTAGTGCAG,32100 fluorescence intensity (a.u.)
17,CAAATGAAAGAGAGACAGAGCGCATTAGAACACAAAAGTTCGGAGTCACCTAGTGCAG,3640 fluorescence intensity (a.u.)
18,GATCATGATGGTATATTCTACATCTTGTTACAGCTATGTGCGGAGTCACCTAGTGCAG,3140 fluorescence intensity (a.u.)
19,GGCTATTTCGTCCCAATTACCAATGGGCTAATTTTGGATCCGGAGTCACCTAGTGCAG,5000 fluorescence intensity (a.u.)
20,AGACAATCAAGCCAAATGTTCAATTGATGGCTACGTCGCTCGGAGTCACCTAGTGCAG,7960 fluorescence intensity (a.u.)
21,GATACTGTCGACGCTTAATTAGATTGTACTTTATACCACGCGGAGTCACCTAGTGCAG,5570 fluorescence intensity (a.u.)
